Counter-ions that a name gives are not always drawn. The list shows a part of the results. Single values are uncertain, as repeats are few or missing.
system: Beas-2B AQP5-HiBiT reporter cells; assay: AQP5-HiBiT luminescence relative to vehicle (ratio to vehicle); higher = higher AQP5-HiBiT protein abundance; settings: 10 µM; 18 h
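Further: monoclonal Beas-2B line stably carrying CMV promoter-driven AQP5-HiBiT, 5,000 cells per well in 384-well plates, lytic HiBiT plus LgBiT NanoLuc luminescence, FDA-approved drug library screen.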

Compound | AQP5-HiBiT luminescence
CC(C(=O)O)c1cccc(C(=O)c2ccccc2)c1 (configuration not stated) [Ketoprofen] | 1.06
C[C@@H]1CN(c2c(F)c(N)c3c(=O)c(C(=O)O)cn(C4CC4)c3c2F)C[C@H](C)N1 [Sparfloxacin] | 1.46
CC[C@H](Nc1ncnc2[nH]cnc12)c1nc2cccc(F)c2c(=O)n1-c1ccccc1 [CAL-101 (Idelalisib, GS-1101)] | 0.733
CC(C)CN(C[C@@H](O)[C@H](Cc1ccccc1)NC(=O)O[C@H]1CO[C@H]2OCC[C@H]21)S(=O)(=O)c1ccc(N)cc1 [Darunavir] | 1.02
Nc1nc(Cl)nc2c1ncn2[C@@H]1O[C@H](CO)[C@@H](O)[C@@H]1F [Clofarabine] | 0.622
Cc1ccc(=O)n(-c2ccccc2)c1 [Pirfenidone] | 0.799
CCCCCCCCc1ccc(CCC(N)(CO)CO)cc1 [Fingolimod (FTY720) hydrochloride] | 2.01
CC(C)c1nc(N(C)S(C)(=O)=O)nc(-c2ccc(F)cc2)c1/C=C/[C@@H](O)C[C@@H](O)CC(=O)O [Rosuvastatin calcium] | 0.744
OC[C@H]1O[C@@H](O[C@@H]2[C@@H](CO)OC(O)(CO)[C@H]2O)[C@H](O)[C@@H](O)[C@H]1O (mixture of isomers) [Lactulose] | 0.636
N[C@H]1CONC1=O [L-Cycloserine] | 0.517
Cc1ccnc(NS(=O)(=O)c2ccc(N)cc2)n1 [Sulfamerazine] | 1.09
C[C@@H](NCCCc1cccc(C(F)(F)F)c1)c1cccc2ccccc12 [Cinacalcet hydrochloride] | 0.756

— the supplement of paper PMC8821664
